The structures appear in SMILES notation. Among all 48,000 compounds or so, about 1,200 (2.5%) were called active. Inconclusive results (about 2%) are left out.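 The calls were made as follows: active = activation of at least 60% and not above a set upper limit (about 1 call in 100 departs from these limits); inconclusive = activation of 40% to 60%, or above that upper limit; inactive = activation under 40%.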 This is one part of the list.

In the test the target is Probable G-protein coupled receptor 32 (Homo sapiens) (UniProt O75388). Description: qHTS for Agonists of Human Resolvin D1 Receptor DRV1. Also: 0% is about no effect. As to conditions: CHO-K1 GPR32 beta-arrestin PathHunter luminescence, 90 min; at 76.9 µM; stronger effect = higher value; zero percent set by DMSO-only wells. The gist of the method: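 Readings come from a cell-based beta-arrestin complementation format: CHO-K1 GPR32 stable cells (2,500/well) treated 90 min with compounds, then beta-Gal substrate added for 1 h before chemiluminescence imaging.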
Chain of UniProt O75388 (O75388 whole entry, looked up): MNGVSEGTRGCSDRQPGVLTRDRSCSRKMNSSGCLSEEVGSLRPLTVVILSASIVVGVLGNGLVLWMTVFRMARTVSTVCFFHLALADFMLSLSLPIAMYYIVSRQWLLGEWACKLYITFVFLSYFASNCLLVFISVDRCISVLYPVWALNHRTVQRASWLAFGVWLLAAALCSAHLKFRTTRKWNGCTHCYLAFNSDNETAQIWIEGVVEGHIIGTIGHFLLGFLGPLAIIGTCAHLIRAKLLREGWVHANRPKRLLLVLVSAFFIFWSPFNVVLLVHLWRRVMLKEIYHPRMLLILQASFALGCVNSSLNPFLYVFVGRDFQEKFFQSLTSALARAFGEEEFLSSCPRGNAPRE
For orientation: qHTS replaces the single test concentration by a dilution series.
As to `Cc1cccc(Cn2c(SCc3ccc(C(=O)NCc4ccccc4F)cc3)nc3cccnc32)c1`, the activation is inactive: -9.59%.

Regarding `CCCS(=O)(=O)c1nc(S(=O)(=O)c2ccc(C)cc2)c(NC(C)c2ccccc2)s1` (stereo not given), the activation is inactive: -24.7%.

For `Nc1nonc1-c1nc2ccccc2n1CC(=O)Nc1ccc(F)cc1`, the activation is inactive: -10.4%.

With `CC(=O)c1cc(-c2ccccc2)n(CC(=O)Nc2ccc(C)cc2C)c1C`, the activation is inactive: -5.28%.

As for `Fc1ccc(C(c2ccc(F)cc2)N2CCNCC2)cc1`, the activation was inactive: -8.58%.

Regarding `Cc1ccc(-c2nc(CS(=O)CC(=O)O)c(C)o2)cc1` (stereo not given), the activation is inactive: 1.24%.

Take `Cc1ccc(S(=O)(=O)c2cn(CC(=O)Nc3ccccc3)c3cc4c(cc3c2=O)OCO4)cc1`: the activation is inactive: -5.87%.

Regarding `CCOc1ccccc1NC(=O)NC(CC)c1c(-n2cccc2)sc2c1CCN(C)C2` (stereo not given), the activation is inactive: -23%.

As to `CCc1ccc(Nc2nc3ccccc3c3nnc(C)n23)cc1`, the activation was inactive: -8.75%.

Take `Cc1cccc(N2CCN(C(=O)c3ccc4c(c3)CCN4S(=O)(=O)c3ccccc3)CC2)c1C`: the activation is inactive: -15%.

With `CCc1ccccc1NC(=O)CSc1nccn1C`, the activation is inactive: 1.19%.

With `CCc1ccc(S(=O)(=O)c2nnn3c2nc(NCCC(C)C)c2cc(Cl)ccc23)cc1`, the activation is inactive: -14%.

For `CCOC(=O)c1cc(OC(=O)c2cc(Cl)ccc2OC)n(-c2ccccc2)n1`, the activation was inactive: 39.1%.

Turning to `CCCN(CCC)S(=O)(=O)c1ccc(C(=O)N2CCn3c4c(c5cc(C)ccc53)CCCC42)cc1` (stereo not given), the activation was inactive: -24.6%.

On to `O=C(COc1ccc(Cl)cc1Cl)Nc1ccc(C(=O)OC2CCCCC2)cc1`, for which the activation is inactive: 3.88%.

Take `Cn1nc(C(=O)Nc2cccc(C(F)(F)F)c2)c2c1-c1ccccc1S(=O)(=O)C2`: the activation was inactive: -8.77%.

With `CC(=O)c1ccc(OC(=O)c2c(-c3ccccc3Cl)noc2C)cc1`, the activation was inactive: -2.07%.

Regarding `COc1ccc2c(c1)c(CC(=O)Nc1cc(C)c(OC)c(C)c1)c(C)n2C(=O)c1ccc(Cl)cc1`, the activation is inactive: -2.54%.

In the case of `Cn1c(SCC(=O)Nc2ccccc2F)nc2c([nH]c3ccccc32)c1=O`, the activation was inactive: -11.8%.

Regarding `COc1ccccc1Nc1ncnc2c1nc1n2CCCCC1`, the activation is inactive: -2.87%.

For `CCOc1ccc(NS(=O)(=O)c2ccc3[nH]cc(C(=O)NCCc4ccccc4)c(=O)c3c2)cc1`, the activation is inactive: -4.27%.

Regarding `Cc1ccc(NC(=O)C2CCN(S(=O)(=O)c3c(C)noc3C)CC2)cc1C`, the activation is inactive: 3.84%.

For the molecule `Cc1ccc(CN2C(=O)N(c3ccc(C)c(Cl)c3)S(=O)(=O)c3ccccc32)cc1`, the activation was inactive: -8.18%.

On to `COc1cccc(NC(=O)CN2C(=O)C3(SCC(=O)N3c3cc(C)cc(C)c3)c3ccccc32)c1` (stereo not given), for which the activation is inactive: 11.8%.

As for `COC(=O)c1cc2oc(C)cc2n1Cc1ccc(Cl)cc1`, the activation was inactive: -36.7%.

With `N#Cc1ccc(NC(=O)COCc2cc(-c3ccc(F)cc3)on2)cc1`, the activation is inactive: 15.8%.

As for `O=C(Nc1ccc(Cl)cc1C(F)(F)F)c1cc(S(=O)(=O)NCc2ccccc2)ccc1F`, the activation is inactive: -2.57%.

With `CCOC(=O)C1CCN(C(=O)c2nn(-c3ccc(C)cc3)c(=O)n(C)c2=O)CC1`, the activation was inactive: -7.63%.

With `COC(=O)c1c(-c2cccs2)csc1NC(=O)COc1ccc(C(C)C)cc1`, the activation is inactive: -22.8%.

For `CCOc1ccc(CNC(=O)c2cnc(SC)nc2C)cc1`, the activation was inactive: 24.2%.

On to `COc1ccc(CNC(=O)CCS(=O)(=O)c2ccc3c(c2)CC(C)N3C(=O)C2CC2)cc1` (stereo not given), for which the activation was inactive: 0.325%.

For `CCN(CC)C(=O)C1CCN(C(=O)c2cnn(-c3ccccc3)c2-n2cccc2)CC1`, the activation is inactive: 15.2%.

Regarding `CCOC(=O)CSc1nc2ccccc2n2c(C)nnc12`, the activation is inactive: 22%.

Consider `O=C(CSc1nccn1C1CCCC1)Nc1ccccc1`, for which the activation is inactive: -4.17%.

`CCOc1ccc(-n2ccnc2SCC(=O)Nc2ccc(OC)cc2OC)cc1`: the activation was inactive: -10.1%.

`CC1=C(C(=O)OC2CCCC2)C(c2cccc(Cl)c2Cl)CC(=O)N1` (stereo not given): the activation is active: 83.1%.

On to `Cc1ccc(Cl)cc1N1CCN(C(=O)c2cn(C)c3ccc(S(=O)(=O)N4CCCC4)cc3c2=O)CC1`, for which the activation is inactive: -3%.

With `O=C(Cn1c(=O)n(-c2ccccc2)c(=O)c2c3c(sc21)CCCC3)Nc1ccc(F)cc1`, the activation was inactive: 5.68%.

As for `COc1ccccc1N1CCN(C(=O)c2cc3c(=O)n(Cc4cccnc4)ccc3nc2C)CC1`, the activation was inactive: -3.23%.

With `Cc1ccccc1OCC(=O)Nc1nnc(S(=O)(=O)N(C)c2ccccc2)s1`, the activation was inactive: -14.9%.

Turning to `COc1ccc(Br)cc1CNC(=O)c1cc2c(=O)n(C)c3ccccc3c2s1`, the activation was inactive: 0.691%.

As to `Cc1cccc(CCNC(=O)c2nc(-c3ccc(Cl)cc3)n3c2CCCCC3)c1`, the activation was inactive: -45.2%.

Consider `Oc1cccc2[nH]ccc12`, for which the activation is inactive: -20%.

`CCN1CCN(c2ncc3c(n2)CCN(Cc2ccc(C)s2)C3)CC1`: the activation was inactive: -16.6%.

Turning to `CCOc1ccc(C(=O)OCc2cc(=O)n3nc(C(C)C)sc3n2)cc1`, the activation was inactive: -4.98%.

As to `CO/N=C(/C(=O)N[C@@H]1C(=O)N2C(C(=O)[O-])=C(C[n+]3ccn4ncccc43)CS[C@H]12)c1nsc(N)n1`, the activation is inactive: 6.16%.

Turning to `CN(C)[C@@H]1C(=O)C(C(=O)NCN2CCCC2)=C(O)[C@@]2(O)C(=O)C3=C(O)c4c(O)cccc4[C@@](C)(O)C3C[C@@H]12` (stereo not given in full), the activation is inactive: -6.2%.

As to `CC(C)CC(=O)N(Cc1ccccc1)S(=O)(=O)c1ccc2c(c1)oc(=O)n2C`, the activation is inactive: -2%.

Consider `CC(=O)c1ccc(NC(=O)COc2ccccc2-c2nc(C)no2)cc1`, for which the activation was inactive: -9.96%.

For `CCn1c2c(c(=O)n3ncc(C(=O)Nc4ccc(F)c(Cl)c4)c13)CN(Cc1ccc(OC)cc1)CC2`, the activation was inactive: -13.4%.

Consider `O=c1c2ccccc2nc2sc(Nc3cccc(C(F)(F)F)c3)nn12`, for which the activation is inactive: 5.53%.

Turning to `CCN(CC)c1ccc(C2C(C(N)=O)=C(C)Nc3nc(SCc4ccccc4)nn32)cc1` (stereo not given), the activation was inactive: -22%.

`COC(=O)c1cc(Cl)ccc1NS(=O)(=O)C(F)(F)F`: the activation was inactive: -4.14%.

On to `CCOC(=O)c1nnc2c(-c3ccc(F)cc3)c(C)nn2c1N`, for which the activation is inactive: -20.4%.

As for `COc1ccc(/C=C\c2onc(C)c2S(=O)(=O)N2CCC(C(=O)Nc3ccc(C)c(F)c3)CC2)cc1`, the activation was inactive: -17.8%.

Consider `CSc1cccc(NS(=O)(=O)c2ccc3[nH]cc(C(=O)N4CCCCCC4)c(=O)c3c2)c1`, for which the activation is inactive: -3.52%.

For `Fc1ccc(-c2noc3ncnc(NCc4cccc(Cl)c4)c23)cc1`, the activation was inactive: -6.09%.

On to `Cc1cccc(Cc2c(C)nc3nc(SCC(=O)NC4CCCCC4)nn3c2C)c1`, for which the activation was inactive: -25.3%.

For `COc1ccc(-c2noc(CCC(=O)Nc3ccccc3Cl)n2)cc1OC`, the activation was inactive: -2.94%.

Turning to `COCCN1CN=C(NS(=O)(=O)c2ccc(C)cc2)NC1`, the activation was inactive: -9.31%.

Consider `COc1ccccc1CNC(=O)c1cnn(-c2ccc(F)cc2F)c1C1CCN(C(=O)OC(C)(C)C)CC1`, for which the activation is inactive: -21.7%.

Turning to `Cc1ccc(N2CC(NC(=O)Cc3ccc(F)cc3)CC2=O)cc1C` (stereo not given), the activation is inactive: -6.33%.

With `COC(=O)c1cccnc1-n1c(=O)c2cccnc2n(CC(=O)Nc2cccc(C(F)(F)F)c2)c1=O`, the activation is inactive: -14.8%.

For the molecule `CCOc1cc(C2CC(=O)Nc3c2c(C)nn3-c2nc(C)cc(C)n2)ccc1O` (stereo not given), the activation is inactive: -8.25%.

For the molecule `Cc1ccc(-c2onc(C)c2C)cc1S(=O)(=O)NC1CCC(C)CC1` (stereo not given), the activation was inactive: -24.4%.

Regarding `COc1ccccc1N1CCN(C(=O)c2oc3ccccc3c2N)CC1`, the activation was active: 70.9%.

As to `COc1ccc(/C=C(\C#N)c2nc(-c3cc4ccccc4oc3=O)cs2)cc1OC`, the activation is inactive: -6.98%.

`CC1CCN(S(=O)(=O)c2ccc3nc(N4CCN(c5ccccc5F)CC4)ccc3c2)CC1`: the activation is inactive: -3.94%.

Regarding `FC(F)(F)c1cccc(N2CCN(Cc3nnc(-c4ccccc4)o3)CC2)c1`, the activation is inactive: -25.4%.

As for `O=C(/C=C/c1ccccc1)Nc1cc(-c2nc3ccccc3o2)ccc1Cl`, the activation was inactive: 1.9%.

With `COc1cc(C)ccc1OCCSc1nnc(-c2cccs2)o1`, the activation was inactive: -0.749%.

In the case of `CCCN(CCC)CCCNC(=O)c1nn(C)c2c1CS(=O)(=O)c1ccccc1-2`, the activation is inactive: -4.51%.

On to `CC(=O)Nc1nonc1-c1nnc(SCc2cccc(Br)c2)n1C`, for which the activation is inactive: -6.63%.

For `CCOc1ccccc1CNC(=O)c1ccc(Cn2c(=O)c3cccn3c3cccnc32)cc1`, the activation was inactive: -13.2%.

For the molecule `CC(C)c1ccc(-c2noc(SCC(=O)N3CCCCC3)n2)cc1`, the activation is inactive: 11.4%.

`CC(C)(C)OC(=O)N1CCC(c2c(C(=O)NCc3ccccn3)cnn2-c2ccccc2Cl)CC1`: the activation was inactive: -11.4%.

Turning to `Cc1ccc(C)c(N2CCN(S(=O)(=O)c3ccc(C4CCCCC4)cc3)CC2)c1`, the activation is inactive: -8.78%.

Take `CCCc1noc(-c2ccc(NCc3ccccc3OC)c([N+](=O)[O-])c2)n1`: the activation is inactive: -13.7%.

For the molecule `Cn1c(=O)nc2n(-c3ccc(Br)cc3)c3cccc(Cl)c3cc-2c1=O`, the activation was inactive: -2.14%.

Turning to `CCC(=O)N1c2ccccc2CC1C(=O)NCCN1CCN(c2ccccc2F)CC1` (stereo not given), the activation was inactive: 8.02%.

Turning to `Cc1ccc(NC(=O)CSc2nc(=O)n(CCN3CCOCC3)c3c2CCC3)cc1Cl`, the activation was inactive: -16.8%.

On to `Cc1ccc(Nc2c(-c3cccc(Cl)c3)nc3cccc(C)n23)cc1`, for which the activation is inactive: -17.1%.

Turning to `Cc1cc(-c2ccc(C)c(S(=O)(=O)NCCc3ccccc3)c2)on1`, the activation was inactive: -12%.

On to `COc1cccc(CNC(=O)C2CCN(c3ncnc4c3nc3n4CCCCC3)CC2)c1`, for which the activation is inactive: -1.86%.

Regarding `O=C(Nc1cc(-c2nc3ccccc3o2)ccc1Cl)c1cc([N+](=O)[O-])ccc1N1CCOCC1`, the activation is inactive: 6.14%.

(Values after PubChem BioAssay AID1346428 (National Center for Advancing Translational Sciences (NCATS), 2018).)
